Experimental data published in paper PMC4336329 (PLoS ONE, 2015).
About 14,000 (4.5%) of roughly 310,000 compounds showed an effect of 50% or more. The effect is printed as a negative number. This is one part of the list.

These compounds were tested against human ether-à-go-go-related gene (hERG) potassium channel (human, UniProt Q12809) (assay: primary screen, population patch clamp on CHO cells stably expressing hERG).
Procedure: Briefly, Chinese hamster ovary (CHO) cells stably expressing the hERG channel were dislodged from tissue culture flasks and dispensed into PPC plates. […] During the recording, background leak currents were estimated by a 100 ms step to -80 mV from an initial holding potential of -70 mV and subtracted from the subsequent current measurement. The campaign was conducted in two phases using slight differences in recording protocol. In the first phase, the initial voltage pulse used a 100 ms step to -30 mV from a holding potential of -70 mV, a 2 s conditioning step to +25 mV, and a 2 s test step to -30 mV. During the second phase of the screen, the potential during the conditioning step was raised to +45 mV. In both phases of the campaign, a secondary voltage pulse was applied using the same parameters as the second phase initial pulse. The initial and secondary pulses were applied in the absence of compound, and upon application of 1 μM and 10 μM test concentrations. […]
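Note: peak tail current of the secondary pulse compared with the same well before compound.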

Sequence of human ether-à-go-go-related gene (hERG) potassium channel (Q12809 whole entry, looked up): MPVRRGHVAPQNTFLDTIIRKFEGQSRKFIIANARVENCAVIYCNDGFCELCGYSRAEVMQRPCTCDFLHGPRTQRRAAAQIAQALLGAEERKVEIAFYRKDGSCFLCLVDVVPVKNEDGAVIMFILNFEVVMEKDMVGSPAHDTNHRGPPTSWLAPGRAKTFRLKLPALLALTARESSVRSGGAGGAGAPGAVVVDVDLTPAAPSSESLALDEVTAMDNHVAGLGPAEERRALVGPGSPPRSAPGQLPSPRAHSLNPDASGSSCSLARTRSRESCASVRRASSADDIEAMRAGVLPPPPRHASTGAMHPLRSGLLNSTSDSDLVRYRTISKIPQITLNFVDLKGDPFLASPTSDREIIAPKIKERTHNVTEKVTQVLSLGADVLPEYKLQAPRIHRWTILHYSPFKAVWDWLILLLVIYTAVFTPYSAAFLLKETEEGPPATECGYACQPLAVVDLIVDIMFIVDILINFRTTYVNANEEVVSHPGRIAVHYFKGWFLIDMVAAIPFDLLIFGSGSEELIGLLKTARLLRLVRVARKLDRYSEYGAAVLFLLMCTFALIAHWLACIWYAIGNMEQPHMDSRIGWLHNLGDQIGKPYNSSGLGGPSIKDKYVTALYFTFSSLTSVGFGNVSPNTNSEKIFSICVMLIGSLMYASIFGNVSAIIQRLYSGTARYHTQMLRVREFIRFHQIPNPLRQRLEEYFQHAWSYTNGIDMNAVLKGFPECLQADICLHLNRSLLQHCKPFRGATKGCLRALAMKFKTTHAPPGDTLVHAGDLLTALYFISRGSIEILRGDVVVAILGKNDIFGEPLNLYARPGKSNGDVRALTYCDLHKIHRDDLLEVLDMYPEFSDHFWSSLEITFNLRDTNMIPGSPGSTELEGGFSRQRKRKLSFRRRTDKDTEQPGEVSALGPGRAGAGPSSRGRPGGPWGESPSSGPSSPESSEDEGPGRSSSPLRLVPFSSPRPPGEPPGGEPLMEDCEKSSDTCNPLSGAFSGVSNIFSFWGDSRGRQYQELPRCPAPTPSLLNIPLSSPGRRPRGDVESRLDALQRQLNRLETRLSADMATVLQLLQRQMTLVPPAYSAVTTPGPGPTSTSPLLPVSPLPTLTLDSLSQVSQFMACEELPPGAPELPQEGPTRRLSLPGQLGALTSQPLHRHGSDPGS

SMILES | hERG current change (%, negative = inhibition) at 10uM [%]
COc1ccc(NC(=O)NNC(=O)COc2ccc3ccccc3c2)cc1OC | 17.4
COc1ccc(/C=C(/NC(=O)c2ccc(C)cc2)C(=O)NCC2CCCO2)cc1 (centres unmarked) | -24.6
CCN=C1S/C(=C\c2ccc(-c3cccc(C(=O)O)c3)o2)C(=O)N1CC | 61.4
Cc1snc2sc(C(=O)c3ccc(F)cc3)c(N)c12 | -1.2
O=C(C1CCN(S(=O)(=O)c2ccc(Br)s2)CC1)N1CCN(C2CCCCC2)CC1 | -30.9
Cc1cc(NC(=O)C(C)SCC(=O)O)no1 (centres unmarked) | 22.5
COc1ccccc1CCNC(=O)COc1cccc2c1OC(C)(C)C2 | -11.7
O=C(O)C1C2CCC(C2)C1C(=O)Nc1cccc([N+](=O)[O-])c1 (centres unmarked) | 18.3
Cc1cc(OCCN2CCCCC2)nc2ccccc12.Cl | -43.6
O=C(N/N=C/c1c(F)c(F)c(F)c(F)c1F)c1cc(-c2ccccc2)nc2ccccc12 | 6.92
Cc1cccc(C(CC(=O)N2CCCC2)c2ccccc2)c1O (centres unmarked) | -19.4
COc1cccc(NC(=O)C(C)(C)C)c1 | -2.44
O=C1CCCN1CC1CCCN(Cc2nc(COc3ccccc3)no2)C1 (centres unmarked) | 28.6
CN(C)CCCOC(=O)c1ccccc1 | 5.26
COc1ccc(CCNC(=O)Cn2cc(C(F)(F)F)cc(Cl)c2=O)cc1OC | -0.415
COC(=O)c1c(NC(=O)CC2Nc3cc(C)c(C)cc3NC2=O)sc(C)c1C (centres unmarked) | -17.2
O=c1c2c3c(sc2ncn1/N=C/c1ccccc1)CCCC3 | 3.34
COCc1cc(CN2CCN(CCc3ccccc3)C(CCO)C2)ccc1OC (centres unmarked) | -56.9
CCOC(=O)/C(C#N)=C/c1c(N2CCN(c3ccc(OC)cc3)CC2)nc2c(C)cccn2c1=O | 3.02
O=[N+]([O-])c1ccccc1OCCCCN1CCCCC1 | -32.2

SMILES | hERG current change (%, negative = inhibition) at 10uM [%]
Cc1ccc(NC(=O)C(C)SCc2ccccc2)cc1 (centres unmarked) | -4.2
CCOC(=O)c1cc(C(=O)Nc2ccc(C)c(F)c2)nn1C | 3.51
Cn1nnnc1SCC(=O)Nc1cccc([N+](=O)[O-])c1 | 2.65
Cc1n[nH]c(=S)n1Cc1ccccc1 | 9.94
CC(C)(C)c1ccc(OCC(O)CN(CCO)CC(O)Cn2ccc3ccccc32)cc1 (centres unmarked) | 3.08
CCOC(=O)C1=C(C)NC2=C(C1c1ccc([N+](=O)[O-])cc1)S(=O)(=O)c1ccccc12 (centres unmarked) | -31.5
Cc1nc(SCC(=O)NCc2cccs2)nc(C)c1C | 18
COc1ccc(-c2cc(C(=O)N3CCN(S(=O)(=O)c4ccc(C)cc4)CC3)[nH]n2)cc1 | 0.242
Nc1nonc1-c1nc2ccccc2n1CC(=O)N1CCN(c2ccc(F)cc2)CC1 | -12.3
COc1ccccc1-c1ccc(/C=C2/C=C(CC(C)C)OC2=O)o1 | 13.9
NCCN=C1NS(=O)(=O)c2ccccc21 | 0.316
COc1ccc(Cl)cc1NC(=S)NC(=O)c1ccco1 | -31.5
CC(C)(C)c1ccc(C(=O)NCCC(=O)Nc2cc(Cl)ccc2N2CCOCC2)cc1 | -2.31
Cc1nc(SCc2ccccc2C#N)n[nH]1 | 23.4
CCCCc1nnc(NC(=O)C(C)Sc2nc(C)cc(=O)[nH]2)s1 (centres unmarked) | -7.17
Cc1cc2oc(=O)cc(Cn3nnc(-c4ccc(Cl)cc4)n3)c2cc1C(C)C | 10.2
Cc1cccc(NC(=O)CO/N=C/c2ccc3c(c2)OCO3)c1 | -10.7
O=C(COc1ccccc1)NNc1nc2c(F)cccc2s1 | 32.6
CC1CCN(c2cc(N3CCOCC3)c([N+](=O)[O-])cc2F)CC1 | -10.3
Cc1cc(=O)n2nc(N3CCC(C(=O)Nc4cccc(Cl)c4C)CC3)sc2n1 | -10.1

SMILES | hERG current change (%, negative = inhibition) at 10uM [%]
Cl.Fc1ccc(COc2cccc(CNCc3ccncc3)c2)cc1 | -40.6
Cl.Cn1c(=O)c2c(nc(N3CCOCC3)n2CCCNC2=NCCCCC2)n(C)c1=O | 10.5
CN(C)c1ccc(/C=N/NC(=O)c2ccccn2)cc1 | 9.64
CCCNC(=O)COCc1cc(-c2ccc3c(c2)OCO3)on1 | 0.0175
C[N+](C)(C)CCCN1C(=O)CCCC1=O.[I-] | 17.1
CCN(CC)S(=O)(=O)c1cc(F)ccc1OC | -10.8
CCCC(=O)c1ccc(N2CCCCC2)c(F)c1 | 10.5
O=C1CC2(CCCCC2)Oc2ccc(Cl)cc21 | 1.26
Cc1ccccc1C(=O)c1cccn1CC(=O)NCC1CCCO1 (centres unmarked) | 4.58
Cc1cc(C)c2sc(N(CCN(C)C)C(=O)c3cc(Cl)sc3Cl)nc2c1.Cl | 9.32
COc1ccc(CCNC(=O)CCn2c(=O)oc3ccccc32)cc1OC | 6.52
O=C(NC1CCNCC1)C1CC1 | 20.1
O=c1c2cc(-c3ccccc3)sc2nc2n1CCC2 | 6.9
COP(=O)(CN(Cc1ccccc1)C(=S)Nc1c(C)cccc1C)OC | 46.9
CC(=O)Cn1c(=O)c2c(nc3n2CCCN3Cc2ccccc2)n(C)c1=O | -7.99
Cc1ccc(C(C(=O)NC(C)(C)C)N(CC2CCCO2)C(=O)CCC(=O)Nc2ccccn2)cc1 (centres unmarked) | 13.7
CC(NC(=S)NC(=O)c1ccccc1)c1ccccc1 (centres unmarked) | -3.34
O=C(Nc1ccc([N+](=O)[O-])cc1)/C(=C/c1cccc([N+](=O)[O-])c1)NC(=O)C1CCCCC1 | -69
CCOc1ccc(C(=O)N/N=C(\c2ccccc2)c2ccccn2)cc1 | -27
